# The full ranking holds about 110,000 compounds; the median of “z-score” is about -0.1, and the highest 2% start at about 2. Some of the results follow. Activity calls are given as the source filed them.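 Rule for the calls: active = z-score in the third read window above 3 or below -3; inactive = the rest.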 Residues, ends and D or L forms follow the SMILES beside them. *: point of attachment. Boc = CC(C)(C)OC(=O)*
# Biological target: Metabotropic glutamate receptor 8 (Rattus norvegicus) (UniProt P70579)
# Chain of UniProt P70579 (P70579 whole entry, looked up): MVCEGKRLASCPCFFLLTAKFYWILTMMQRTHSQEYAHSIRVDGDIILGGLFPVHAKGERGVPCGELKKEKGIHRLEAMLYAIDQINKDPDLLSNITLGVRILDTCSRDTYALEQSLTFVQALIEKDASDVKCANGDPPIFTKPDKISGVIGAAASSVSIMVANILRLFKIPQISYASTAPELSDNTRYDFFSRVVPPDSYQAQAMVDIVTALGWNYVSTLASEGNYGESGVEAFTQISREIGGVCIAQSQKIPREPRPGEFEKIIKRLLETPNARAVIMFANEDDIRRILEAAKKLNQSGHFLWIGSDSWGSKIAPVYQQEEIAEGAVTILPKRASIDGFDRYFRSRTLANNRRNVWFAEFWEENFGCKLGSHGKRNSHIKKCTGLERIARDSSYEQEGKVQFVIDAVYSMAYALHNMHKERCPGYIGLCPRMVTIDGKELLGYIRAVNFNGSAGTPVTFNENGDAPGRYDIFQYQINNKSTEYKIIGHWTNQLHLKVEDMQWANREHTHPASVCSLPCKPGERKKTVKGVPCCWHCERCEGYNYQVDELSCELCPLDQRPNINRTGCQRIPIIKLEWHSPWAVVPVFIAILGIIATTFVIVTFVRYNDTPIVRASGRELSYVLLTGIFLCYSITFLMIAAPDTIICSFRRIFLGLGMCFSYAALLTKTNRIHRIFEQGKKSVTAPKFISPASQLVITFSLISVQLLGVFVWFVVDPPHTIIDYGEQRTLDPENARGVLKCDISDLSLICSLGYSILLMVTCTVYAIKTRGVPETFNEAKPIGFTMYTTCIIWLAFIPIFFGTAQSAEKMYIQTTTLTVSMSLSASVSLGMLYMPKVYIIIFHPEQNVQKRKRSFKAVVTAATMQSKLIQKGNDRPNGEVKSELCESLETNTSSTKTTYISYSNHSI
# Assay: rat mGluR8 modulators via GIRK flux, primary screen, cell-based, thallium flux, HTS (AID 488969)
# Settings: HEK293 rat mGluR8, GIRK (G protein-gated inwardly rectifying potassium channel) thallium flux, FluoZin2; at 10 µM; stronger effect = higher value; submaximal glutamate (EC20) added with thallium
row,Compound,z-score
1,CCOC(=O)C1CCCN(C(=O)c2ccco2)C1 (stereo unspecified),0.661
2,COc1cccc2c(SCC(=O)N/N=C/c3ccccc3)cc(C)nc12,0.139
3,C=CCc1ccc(OCCOCCOc2ccc(C)cc2[N+](=O)[O-])c(OC)c1,-0.342
4,O=C(NCC(=O)N1CCN(c2ncccn2)CC1)c1cccs1,0.235
5,O=C(N/N=C/c1ccc(F)cc1)c1sccc1OCc1ccc(F)cc1,-0.218
6,CC(C)c1ccc(OCC(=O)Nc2cccc3c2CCCC3)cc1,-0.403
7,CCOC(=O)C1C2C=CC3(CN(c4ccccc4CC)C(=O)C13)O2 (stereo unspecified),0.141
8,CCSc1nnc(NC(=O)CSc2nc(C)cc(C)n2)s1,-0.0284
9,Cc1cc(C(=O)O)ccc1N/C=C1\CCCC(C)C1=O (stereo unspecified),0.167
10,CCCCc1[nH]c(=O)c(C#N)c2c1CSC(C)(C)C2,-0.556
11,CC1=CC2=NC(=O)/C(=C\c3cc(C)n(-c4cccc(Cl)c4)c3C)C(=N)N2O1,-0.016
12,CC(=O)n1c(Cl)c(NC(=O)CCl)c2ccccc21,0.0906
13,CCCOc1ccc(N2C(=O)CC(N3CCN(c4ccccc4OC)CC3)C2=O)cc1 (stereo unspecified),-0.446
14,Cc1cccc2c1N(CC(=O)OC(C)C)C(=O)C2=O,-0.0885
15,COc1ccc(-c2nc(C#N)c(N3CCC(C(N)=O)CC3)o2)cc1OC,0.0333
16,Cc1ccccc1N=C/C=C1\N(C)c2ccccc2C1(C)C,0.23
17,COc1ccc(/C=N/N=C2\CC3CCC2(C)C3(C)C)cc1O (stereo unspecified),0.286
18,CCC12CC3CC(C1)CC(C(=O)Nc1nn[nH]n1)(C3)C2,-0.108
19,CCOC(=O)c1cnn(-c2ncnc3sc(CC)cc23)c1N,0.192
20,C=CCn1c(Cc2nc3ccccc3[nH]2)n[nH]c1=S,-0.147
21,Cc1ccc2cc(C#N)c(NCCCNC(=O)C3CCCO3)nc2c1 (stereo unspecified),0.471
22,Cc1ccc(-n2ccnc2SCC(=O)O)c(C)c1,-0.959
23,CC1CCN(C(=O)COC(=O)c2ccc(Br)o2)CC1,-0.366

row,Compound,z-score
1,CCCn1c(C2CC(=O)N(c3ccc(C)cc3)C2)nc2ccccc21 (stereo unspecified),-0.224
2,COCCn1nnnc1C(C(C)C)N1CCN(C(=O)c2ccco2)CC1 (stereo unspecified),-0.255
3,O=[N+]([O-])c1cccc(S(=O)(=O)N2CCC(c3nc(-c4ccncc4)no3)CC2)c1,-0.207
4,Cc1nc(-c2ccccc2)sc1-c1nc(-c2cccs2)ncc1S(=O)(=O)c1ccccc1,-0.0428
5,COC(=O)C1=C(C)N(C)C(=O)NC1c1ccc(O)c(OC)c1 (stereo unspecified),-0.0527
6,Cc1cccc(OCCNC(=O)CSc2ccc(C(F)(F)F)cc2[N+](=O)[O-])c1,-0.0684
7,COc1ccc(C(=O)NCCc2c[nH]c3ccccc23)cc1S(=O)(=O)N1CCOCC1,-0.0814
8,C/C(=N\OCC(=O)Nc1ccc(F)c(F)c1F)c1cc2ccccc2o1,-1.92
9,Cc1cc(/C=C2/NC(=O)N(c3ccccc3)C2=O)c(C)n1-c1cccnc1,-0.404
10,COc1ccc(NC(=O)N2CCCCC2c2cccnc2)cc1 (stereo unspecified),-0.168
11,COC(=O)c1ccc(C2Nc3ccc(/C(C)=N/NC(=O)C(OC)c4ccccc4)cc3C3C=CCC32)cc1 (stereo unspecified),-0.34
12,CC(=O)N(c1ccc(N(C(C)=O)S(=O)(=O)c2cccs2)cc1)S(=O)(=O)c1cccs1,0.19
13,COC(=O)C(C)N(C#N)c1nc(C)nc(C)n1 (stereo unspecified),-0.57
14,CCOC(=O)N1CCN(C(=O)CSc2ncccn2)CC1,0.107
15,CC(C)CC(c1nnnn1CCc1ccccc1)N1CCC(C(N)=O)CC1 (stereo unspecified),0.238
16,CCCCOC(=O)c1ccc(NC(=O)/C=C/c2cccs2)cc1,-0.063
17,Cc1cc(CNC(=O)Cc2c(F)cccc2Cl)nn1C,0.266
18,Cc1ccc(CCNc2ccc3ccccc3c2)cn1,0.548
19,COC(=O)[C@H](Cc1ccccc1)NC(=O)NCc1ccc(S(N)(=O)=O)cc1,0.212
20,CCOC(=O)N1CCN(S(=O)(=O)c2ccc(OC)c3ccccc23)CC1,-0.219
21,COc1ccc(C(=O)Nc2ccc(Cl)cc2C(=O)NCCO)cc1,-0.145
22,CCOc1ccc(S(=O)(=O)NNC(=O)c2cc3ccccc3o2)cc1,-0.34
23,c1ccc(-c2nn3c(-c4ccco4)nnc3s2)nc1,0.869

row,Compound,z-score
1,CCCc1cc(C(=O)OC)c(NC(=O)OCC)s1,0.148
2,Cc1cc(C(=O)N/N=C2\CCCC(C)C2)n[nH]1 (stereo unspecified),-0.208
3,Cc1cc(C)nc(SCC(=O)N2CCC(C(N)=O)CC2)n1,0.0531
4,O=C(c1cc2nc(-c3ccco3)cc(C(F)(F)F)n2n1)N1CCN(c2ccc(F)cc2)CC1,-0.597
5,CC1(C)CC(=O)C2=C(C1)NC(SCC(=O)Nc1ccccc1)=C(C#N)C2c1ccco1 (stereo unspecified),active: -6.26
6,NS(=O)(=O)c1ccc(CCNC(=O)CN2CCN(c3ccccc3F)CC2)cc1,-0.203
7,COc1ccc(NC(=O)c2sccc2SCC#N)cc1,-0.312
8,COc1ccc(NC(=O)c2cccs2)cc1O,0.366
9,O=C1CCc2cc(S(=O)(=O)NC(Cc3ccccc3)C(=O)NCC3CCCO3)ccc2N1 (stereo unspecified),-0.144
10,Cc1cc(-c2ccccc2)nc(N2CCC(C(=O)NC(C)C)CC2)n1,0.839
11,O=C(NC1CCCCC1)N1CCC(n2c(=O)[nH]c3ccccc32)CC1,-0.147
12,Cc1ccc(CN2C(=O)CCSc3ccc(Cl)cc32)cc1,-0.054
13,CCC(C(=O)OCC(=O)Nc1c(C)n(C)n(-c2ccccc2)c1=O)c1ccccc1 (stereo unspecified),0.215
14,CCN1C(=O)C2(C(C#N)=C(N)Oc3c2c(C)nn3-c2ccccc2)c2ccccc21 (stereo unspecified),0.549
15,Nc1c(Nc2ccccc2)c2ccccc2oc1=O,-0.198
16,COc1cccc(C(=O)/C=C/Nc2ccc(S(=O)(=O)Nc3cnc4ccccc4n3)cc2)c1,1.16
17,O=C(Nc1nc2c(s1)CN(Cc1ccccc1)CC2)c1cccc(S(=O)(=O)N2CCc3ccccc32)c1,-0.247
18,Nc1nn(S(=O)(=O)c2ccccc2)cc1-c1ccc([N+](=O)[O-])cc1,-0.403
19,CC(C)c1ccc2oc(-c3ccc(N)cc3)nc2c1,1.97
20,O=C(CSc1ccc2nnc(-c3ccc(Cl)cc3)n2n1)N1CCc2ccccc21,-0.448
21,O=C(Nc1ccccc1)NC1CCCCC1,0.18
22,Cc1sc(=NC(=O)c2ccco2)n(C)c1-c1ccc(Cl)cc1,-0.385
23,Clc1ccc(-c2cnc(Oc3ccccc3)nc2)cc1,0.274

row,Compound,z-score
1,COc1ccc(NC(=O)/C(=C\c2cccnc2)NC(=O)c2cccs2)cc1,0.33
2,COc1cccc(CN2C(=O)C3(C(C#N)=C(N)OC4=C3C(=O)CCC4)c3ccccc32)c1 (stereo unspecified),-0.725
3,Cc1cc(Nc2cccc(F)c2)n2c(n1)nc1ccccc12,0.0544
4,COC(=O)c1c(NC(=O)CC2SCC(C(=O)OC)NC2=O)sc2c1CCCC2 (stereo unspecified),-0.469
5,Cc1ncc(CSc2nc3ccccc3[nH]2)c(N)n1,-0.344
6,Cc1ccc(N=C2NC(=O)/C(=C/C=C/c3ccco3)S2)cc1C,-0.0786
7,CCOC(=O)CNC(=O)CSc1nc2ncc(Br)cc2[nH]1,0.941
8,Cc1cc(NC(=O)NC2(C(F)(F)F)Oc3ccc(Cl)cc3O2)no1 (stereo unspecified),0.526
9,NNc1ncnc2c1cnn2-c1ccccc1,-0.00309
10,COc1cc(C(=O)NCc2cccc3ccccc23)cc(Cl)c1OC,0.69
11,CC(C)(C)OC(=O)N1CCCC1C(=O)N1CCCC1C(=O)N1CCCC1C(=O)O (stereo not drawn) (Boc-Pro-Pro-Pro-OH; configuration not given here),0.283
12,CC(C)C(=O)Nc1sc2c(c1C#N)CCCCC2,-0.021
13,N/C(Cc1ccc([N+](=O)[O-])cc1)=N\OC(=O)c1ccc(Br)cc1,0.018
14,CCCn1nc(Oc2nc(NCC)nc(NCC)n2)ccc1=O,-0.475
15,CCC(c1nnnn1C(C)(C)CC)N(CCCO)Cc1cc2cccc(C)c2[nH]c1=O (stereo unspecified),1.76
16,COc1ccc2nc(N)sc2c1,0.0701
17,O=C(CCn1c2c(c3ccccc31)CCCC2)NNC(=O)c1ccc(Cl)c([N+](=O)[O-])c1,0.0849
18,COc1ccc(Br)cc1C(=O)N/N=C/c1ccc2c(c1)n(C)c(=O)n2C,-0.132
19,COC(=O)c1ccccc1NC(NC(=O)c1ccco1)C(=O)c1ccc(C)cc1 (stereo unspecified),-0.679
20,O=C(O)c1nsc(Cl)c1Cl,0.11
21,O=C1c2ccccc2C(=O)N1CC1=CCS(=O)(=O)C1,0.399
22,COC(=O)c1cn(NC(=O)c2cccc(OC)c2)c(=O)c2ccccc12,-0.311
23,O=c1c2c3c(sc2nc2n1CCCS2)CCCC3,-0.23

row,Compound,z-score
1,CC(=O)Nc1c(C)ccc2nsnc12,0.0413
2,O=C(COc1ccc(Cl)cc1)NCc1nnc(SCC(=O)NC2CCCCC2)o1,-0.382
3,COc1cccc(CNC(=O)CCNC(=O)Cn2ccc3ccccc3c2=O)c1,-0.209
4,CC(C)OC(=O)c1ccc(N2C(=O)C3CC=CCC3C2=O)cc1 (stereo unspecified),0.0622
5,COC(=O)c1c(C(=O)OC)c(-c2ccc(C)cc2)n2c1CS(=O)(=O)C2,-0.347
6,Cc1cccc(C)c1OCC(O)Cn1c2ccccc2c2ccccc21 (stereo unspecified),-0.494
7,O=C(COc1ccc(Cl)cc1Cl)N(c1ccccn1)C1CCCCC1,0.023
8,CC(C)[C@H](NS(=O)(=O)c1ccc2c(c1)OCCO2)C(=O)OCC(=O)Nc1cc(Cl)ccc1Cl,-0.133
9,CCOc1cc(CN2CCCCC2)ccc1OC,0.476
10,Cc1ccc2c(c1)/C(=N/O)CCS2,-0.215
11,CCCCCOc1ccc(NS(C)(=O)=O)cc1,-0.637
12,CNC(=O)c1nc(C)n(-c2cc(Cl)cc(Cl)c2)n1,0.219
13,CC(C)(C)OC(=O)N[C@@H](Cc1ccccc1)c1nnc(SCC(=O)c2ccc(Cl)cc2)o1,-0.0785
14,CCN(CC(=O)NC)S(=O)(=O)c1ccc(Br)cc1,-0.49
15,O=C1S/C(=C/c2ccc(N3CCOCC3)o2)C(=O)N1Cc1ccc(F)cc1,-0.0996
16,Cc1ccc2oc(C(=O)Nc3c(C)n(C)n(-c4ccccc4)c3=O)c(C)c2c1,0.185
17,CCOC(=O)N1CCN(C(=O)C2CCCCC2)CC1,-0.573
18,CCC(Sc1ncccc1C(=O)OC(C)C)C(=O)NCc1ccco1 (stereo unspecified),-0.404
19,COc1cc(CNC(=O)c2cccc(COc3ccc(Cl)cc3)c2)cc(OC)c1,-0.307

# Reference: PubChem BioAssay AID488969 (Vanderbilt High Throughput Screening Facility, 2010)
